From the supplement of paper PMC4166925
± gives the standard deviation of the averaged measurements. The full ranking holds about 33,000 sequences; the median of “E-score (dimensionless, -0.5 to 0.5)” is about -0.046, and the highest 2% start at about 0.36. This is one part of the list.

system: T1, SpTbr T-box DNA-binding domain (GST fusion); assay: PBM E-score of 8-mer (E-score (dimensionless, -0.5 to 0.5)); Tbr is Tbrain of the sea star Patiria miniata (Pm) or the sea urchin Strongylocentrotus purpuratus (Sp); higher = stronger binding preference; most listed sequences are background and not binding sites; conditions: the construct has about 5 more residues each side
T1 sequence: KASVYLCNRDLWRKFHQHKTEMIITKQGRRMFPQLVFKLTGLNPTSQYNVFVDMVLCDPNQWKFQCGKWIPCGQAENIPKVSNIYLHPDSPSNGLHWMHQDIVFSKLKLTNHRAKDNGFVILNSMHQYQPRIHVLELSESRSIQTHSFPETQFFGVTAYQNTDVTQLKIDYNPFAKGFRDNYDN
Method in brief: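 Using the Universal PBM Analysis Suite, every ungapped 8-mer received an enrichment E-score averaged over duplicate arrays. Probe intensities came from double-stranded Universal Agilent oligonucleotide arrays incubated with 200 nM GST-fused Tbr T-box DNA-binding domain in PBS (pH 7.5). That protein was expressed in BL21 E. coli at 20 °C and purified by glutathione affinity chromatography.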

Sequence	PBM E-score of 8-mer
GTGCAGTA	-0.146 ± 0.044
CAATCTTC	-0.0401 ± 0.022
AACGACCG	-0.117 ± 0.016
AGATAGCG	0.129 ± 0.024
AGTAAATA	-0.121 ± 0.066
ATCTCTGC	-0.0381 ± 0.01
GTTTGCAA	0.168 ± 0.033
AGGTTGTC	0.071 ± 0.0059
CGACGCTC	-0.0449 ± 0.04
ATATTTTC	-0.194 ± 0.082
AAGGCCTC	-0.128 ± 0.049
ACGCTGTC	-0.00162 ± 0.016
CTGCACAC	0.265 ± 0.025
ACTCAAGA	-0.068 ± 0.0055
CTGGGCCC	-0.315 ± 0.043
CTACGAGC	-0.218 ± 0.049
CCTAGTCG	0.183 ± 0.044
CGATTCGA	0.0251 ± 0.022
CCGCGCAA	0.0651 ± 0.0034
AATGCCCC	-0.326 ± 0.004
ACACTAGT	0.272 ± 0.042
ATGGCTTG	-0.238 ± 0.012

Sequence	PBM E-score of 8-mer
ATTTACTG	-0.115 ± 0.0072
AACCTGTG	0.179 ± 0.038
AATTGGGA	-0.0875 ± 0.07
TAACGCTA	0.237 ± 0.031
AACAATGT	0.142 ± 0.038
CACTCTGG	0.0305 ± 0.029
AGCCAATA	-0.235 ± 0.0099
AAATAGTC	-0.124 ± 0.026
GAGAAGGC	0.124 ± 0.023
CGAGGTGA	0.418 ± 0.01
CCATGGGG	-0.216 ± 0.029
CACTCCCC	-0.072 ± 0.14
GGAATCTA	-0.174 ± 0.0019
AACTTGGG	0.0123 ± 0.019
GACCGCCA	-0.0343 ± 0.015
CGTGAGTA	0.155 ± 0.037
AAGCTCGC	0.143 ± 0.0032
CACCACCC	0.12 ± 0.1
ATGATCTC	-0.154 ± 0.0075
CAACCGCA	-0.193 ± 0.066
CGTACTTA	-0.0819 ± 0.045
AGCGCTGG	-0.0187 ± 0.052

Sequence	PBM E-score of 8-mer
AGGCCGAT	-0.0669 ± 0.039
AACTTCCA	-0.0542 ± 0.021
AATCCATT	-0.2343 ± 0.0016
ATACATCC	-0.0137 ± 0.00069
CAATTTCC	-0.117 ± 0.092
GATGCAGC	-0.276 ± 0.024
CAACTAGG	-0.0728 ± 0.056
AAGCTAAC	-0.0669 ± 0.036
ATATTGAG	-0.112 ± 0.033
CTCCCTGA	-0.114 ± 0.0056
CACCAAAG	0.166 ± 0.048
CTACCTGA	-0.0289 ± 0.013
CCGTCTTC	-0.0648 ± 0.033
AATTGCCT	-0.267 ± 0.087
AGACCCAT	-0.115 ± 0.058
ACGGAGAA	-0.0612 ± 0.022
CGGGAGCA	0.0513 ± 0.026
CACTTTGC	0.253 ± 0.0037
GGTGCAGA	0.14 ± 0.056
ATGAACCC	-0.156 ± 0.0065
TATGTCCA	-0.225 ± 0.028
GCAGCAAC	-0.0993 ± 0.071

Sequence	PBM E-score of 8-mer
GAGGGGGC	-0.0623 ± 0.0023
ATACGCCC	-0.13 ± 0.051
CATTACTA	-0.0718 ± 0.0035
AGGTTCTA	-0.136 ± 0.037
ATCCACGA	-0.187 ± 0.024
CAAGCAGC	-0.0345 ± 0.044
CACTGTAA	0.17 ± 0.014
CTGACACA	0.356 ± 0.022
ATGTTCAG	-0.0927 ± 0.015
ACAAGAGT	-0.149 ± 0.024
ATAAGAAG	-0.157 ± 0.038
CGCGTCTA	0.0666 ± 0.015
AGCAACAG	-0.0121 ± 0.0042
GCTCCGGA	-0.139 ± 0.0069
ACGGTCTA	-0.21 ± 0.035
ACGTATTG	-0.135 ± 0.026
GCACGGAC	0.0505 ± 0.0086
TGCTTACA	0.1 ± 0.0065
AGACCCCA	-0.186 ± 0.045
ACCGGAGG	-0.0804 ± 0.00089
ATGAGACG	-0.00405 ± 0.013
TGAGCCCA	-0.101 ± 0.072

Sequence	PBM E-score of 8-mer
ACAGAGGA	-0.119 ± 0.11
ACGGATCG	-0.0367 ± 0.057
AGGATCGG	-0.176 ± 0.02
AGACCCGC	0.0939 ± 0.12
GATCAGCA	0.114 ± 0.08
TAAATCAA	-0.119 ± 0.082
GAAATCAA	0.0239 ± 0.12
CAGTTCGC	0.287 ± 0.028
AATAAAGC	-0.046 ± 0.03
CATATTGG	0.0356 ± 0.017
CGATAGAA	-0.106 ± 0.026
CTTGGCGC	0.281 ± 0.0057
AAGTTGGG	-0.269 ± 0.078
CTCCGAGA	-0.234 ± 0.027
TACCTCTA	-0.164 ± 0.002
ACGACGGA	-0.0459 ± 0.049
CAGGGAGA	-0.135 ± 0.0097
GGAAACTA	-0.15 ± 0.00099
ATTTCGCG	0.389 ± 0.016
AACTCTGC	0.164 ± 0.011
CGAGGCAG	0.00575 ± 0.014
